In all, about 13,000 compounds were measured (“IFI”: median about 4, highest 2% from about 17 on). Some of the results follow.

The nature of the assay: GSK_TCMDC: Inhibition Frequency Index (IFI). The number of non-kinase HTS assays where a compound showed > 50 % inhibition, expressed as a percentage of the number of such assays in which the compound was tested (-0 is zero). It counts as functional.
Compound `CC(C)(C)c1ccc(CN2CCC(CNC(=O)c3cc(-c4ccccc4C(F)(F)F)cs3)C2)cc1` (stereo not drawn) gave an IFI of 13.7%. `CCN(CCN(C)C)Cc1ccc(-c2ccc(NS(=O)(=O)c3cccc(Cl)c3)cc2)cc1` gave an IFI of 9.52%. `CCNc1cc(C(=O)N[C@@H](Cc2ccccc2)[C@H](O)CNC(C)(C)c2cccc(OC)c2)cc(N2CCCC2=O)c1`: the IFI was found to be 2.36%.

As to `CCCN(CCCCNC(=O)c1ccc(-c2cccnc2)cc1)C1CCc2c(O)cccc2C1` (stereo not drawn), the IFI amounted to 2.05%. As for `CCc1sc(-c2cc(Cl)ccc2OC)nc1C(=O)NCCN1CCCCC1`, the IFI worked out at 4%. The value for `NOCCCCOc1ccccc1` was -0%; that for `Cc1ccc(Cc2c[nH]c(NCCSCc3ccc(CN(C)C)s3)nc2=O)cn1` was -0%.

On to `COc1cc2c(C3CCN(CC4CCN(C(=O)/C=C/c5ccc(Cl)c(Cl)c5)CC4)CC3)c[nH]c2cn1`, for which the IFI came out at 1.54%. `CC(C)CNCc1ccc(-c2ccc(CNC3CCN(Cc4ccccc4)CC3)cc2)cc1`: the IFI amounted to 3.52%. With `COc1cc(CNc2ccc(N3CCCC3)cc2)cc(Cl)c1OC` the figure was 11.7%; with `O=C(Nc1cccc(CN2CCCN(Cc3ccc(O)cc3)CC2)c1)c1ccc2ccccc2c1`, 3.42%. On to `Cc1cccc2nc(-c3ccc(-c4ccc(CNCC5CCCO5)cc4)s3)[nH]c12` (stereo not drawn), for which the IFI was 5.88%. In the case of `CCN(CC)CCOC(=O)c1ccc(NC(=O)c2cc(-c3ccc(C)cc3)nc3ccccc23)cc1`, the IFI came out at 7.97%.

Compound `c1cncc(Oc2ccc(Nc3ccnc4cc(-c5cccc(CN6CCOCC6)c5)ccc34)cc2)c1` showed an IFI of 3.79%. As to `Cc1cccc(CC2CC(=O)N(c3ccc([N+](=O)[O-])cc3)C2=O)c1` (stereo not drawn), the IFI is 2.11%. `O=C(CC1CCCC1)N(Cc1ccc(-c2ccc(CNC3Cc4ccccc4C3)cc2)cc1)CC1CCCCN1` (stereo not drawn): the IFI turned out to be 4.48%. `COc1ccc2c(=NN=CC=Cc3ccccc3)cc(C)[nH]c2c1` registered an IFI of 4.14%. `COc1ccc(NC(=O)NC2CCN(c3ccnc4ccccc34)C2)cc1` (stereo not drawn) came in with an IFI of 0%. Turning to `Cc1[nH]c(C)c(-c2ccc(-c3cccc(Cl)c3)nc2)c(=O)c1Cl`, the IFI worked out at 1.82%.

With `O=C(Nc1ccc(C(=O)Nc2ccc(C3=NCCN3)cc2)cc1)Nc1ccc(C2=NCCN2)cc1`, the IFI was 5.84%. As for `Nc1nc(N)c2c(Cl)c(CNc3cccc(C(=O)O)c3)ccc2n1`, the IFI was found to be 2.34%. With `CCOC(=O)c1nc(-c2cccnc2)[nH]c1NC(=S)NCc1ccccc1` the figure was 3.15%. The value for `N[C@@H](COc1cccc2c(-c3ccncc3)c(-c3cccc(NC(=O)Nc4ccccc4)c3)nn12)c1ccccc1` was 10.2%; that for `COc1ccc(Cn2c(SCc3ccc(C)cc3)nc3cc(OC)c(OC)cc3c2=N)cc1Cl` was 14.5%. The compound `Cc1cc(F)ccc1Nc1nc(N(C)c2ccccc2)c2cccc(OCCO)c2n1` showed an IFI of 6.99%. As to `COc1cccc(C(O)CNc2ccnc(Nc3cccc(-c4csc(C)n4)c3)n2)c1` (stereo not drawn), the IFI was determined as 10.6%. The value for `O=C(NCCCCN1CCC(c2c[nH]c3ccccc23)CC1)c1sc(-c2ccc(C(F)(F)F)cc2)nc1CO` was 2.68%; that for `CCCN1CCCN(Cc2cccc(NC(=O)c3ccc(-c4ccccc4)cc3)c2)CC1` was 3.45%.

In the case of `COc1ccc2nccc([C@@H](O)CN3CCC(NC(=O)C(c4cc5ccccc5o4)N4CCN(Cc5ccccc5)CC4)CC3)c2c1` (stereo partly drawn), the IFI came to 4.83%. `O=C(Nc1cccc(CN2CCCN(Cc3ncc[nH]3)CC2)c1)c1ccc(Cl)c(Cl)c1` registered an IFI of 2.67%. As to `CCC[C@@H]([C@@H](CC1CCCCC1)C(=O)N[C@@H](CCOC(=O)NCC)C(=O)Nc1nccs1)N(O)C=O`, the IFI was determined as 3.17%. Turning to `COc1ccc(-c2cc(C(=O)N[C@@H](Cc3ccccc3)C(=O)NCCN3CCCCC3)ccc2O)cc1`, the IFI was determined as 0.75%. `O=C(CN1C(=O)CC1S(=O)(=O)Cc1ccco1)NCCCCCCc1ccc(F)cc1` (stereo not drawn) gave an IFI of 4.35%. The value for `CN(C)c1ccc(-c2csc(C(=O)NCC3CCN(CCC(C)(C)C)C3)c2)cc1` (stereo not drawn) was 8.16%; that for `CC1(C)NC(N)=NC(=N)N1OCc1cccc(Cl)c1Cl` was 1.42%.

Regarding `Cc1cc(NC(=O)NCCN2CCC(NC(=O)c3ccc(C(F)(F)F)cc3)CC2)c2ccccc2n1`, the IFI turned out to be 1.69%.

As to `COc1ccc(Nc2ncc(OC)c(Nc3ccccc3C(N)=O)n2)cc1N1CCN(C)CC1`, the IFI is 11.5%. `CCN(CCNC(=O)Cn1c(C)cc2cc([N+](=O)[O-])ccc21)c1cccc(C)c1` showed an IFI of 2.1%. With `CS(=O)(=O)n1c(CN2CCN(c3ncc(C(F)(F)F)cc3Cl)CC2)nc2ccccc21` the figure was -0%; with `Nc1cccc(CNCc2cccc(-c3ccc(-c4nc5ccccc5[nH]4)s3)c2)c1`, 5.71%. The value for `CS(=O)(=O)N(c1ccccc1)c1cc(C(=O)N[C@@H](Cc2ccccc2)[C@H](O)CNC2CCCCC2)cc(N2CCCC2=O)c1` was 2.29%.

Compound `O=C(C=Cc1ccc(Cl)c(Cl)c1)NCCCCCN1CCC(c2n[nH]c3ccccc23)CC1` gave an IFI of 4.2%. Compound `COc1ccc(-c2cccc(NC(=O)c3ccc(Cl)cc3)c2)cc1CN(C)CCN(C)C` came in with an IFI of 11.7%. With `Cc1cc(N2Cc3ccccc3C2)nc(Nc2cccc(C#N)c2)n1`, the IFI worked out at 2.7%. In turn, `O=C(NCCNc1ccnc(NCc2ccc(F)cc2)n1)c1cc2ccccc2s1` came in with an IFI of 3.03%. With `CCC(C)NCc1c(O)ccc2c(CNC(C)CC)c(O)ccc12` (stereo not drawn), the IFI amounted to 2.21%.

The compound `C=CCOc1cccc2c1CCN(CCN1CCC(NC(=O)c3ccc(-c4ccc(Cl)cc4)cc3)CC1)C2` showed an IFI of 7.58%. The value for `Cc1cccc2nc(-c3cccc(-c4cccc(NC(=O)c5ccncc5)c4)c3)[nH]c12` was 8.7%; that for `CCC1=C(CC2NCCc3cc(OC)c(OC)cc32)CC2c3cc(OC)c(OC)cc3CCN2C1` (stereo not drawn) was 10.8%. As for `COCCOc1ccc(Nc2nccc(-c3c(-c4cccc(NC(=O)c5c(F)cccc5F)c4)nn4ccccc34)n2)cc1Cl`, the IFI stood at 5.3%.

`COc1cc(NC(=O)N2CCOC(CCN3CCC4(CCc5ccccc54)CC3)(c3ccc(Cl)c(Cl)c3)C2)cc(OC)c1` (stereo not drawn) registered an IFI of 6.16%. The value for `CCOC(=O)c1c(CN2CCCC2)n(-c2ccccc2)c2cc(Br)c(O)cc12` was 2.14%; that for `Fc1cccc(COc2ccc(Nc3ncnc4sc(C#CC5CCCCN5)cc34)cc2Cl)c1` (stereo not drawn) was 12.9%. With `COc1ccc(C(=O)NCc2ccccc2-c2ccc(C(C)(C)C)cc2)cc1O` the figure was 2.94%. As for `Nc1cc(C(F)(F)F)ccc1Cl`, the IFI was -0%. The value for `O=C(Nc1ccnc2ccccc12)NC1CCN(Cc2ccccc2)CC1` was 2.26%; that for `Oc1ccc(CN2CCC(N3CCN(CCc4ccccc4)CC3)C(O)C2)cc1Cl` (stereo not drawn) was -0%; that for `O=C(Nc1ccc(N2CCCN(Cc3cccc(F)c3)CC2)cc1)c1ccccc1` was 16.7%. With `CCN(CC)CCCCNc1cc(-c2[nH]c(C(C)(C)C)nc2-c2ccc3cc(OC)ccc3c2)ccn1` the figure was 4.38%; with `Nc1ncnc2c1ncn2C(CO)Cc1ccc(O)cc1` (stereo not drawn), 1.46%. With `O=C(Nc1ccc(Cn2ncc(N3CCCNCC3)c(Cl)c2=O)cc1)Nc1ccc(SC(F)(F)F)cc1` the figure was 8.82%; with `CCOC(=O)c1c(CCc2ccc(C(F)(F)F)cc2)nc2c(c1-c1ccc(C(=O)N[C@@H](C)c3ccncc3)cc1)C(=O)N1CCC[C@@H]21`, 1.59%. In turn, `CCCCCCCN1CC[C@@H](C[C@H](N)Cc2ccnc3ccc(OC)cc23)[C@@H](CC)C1` registered an IFI of 2.86%. With `CN1CCN(c2ccc(-c3cccc(NC(=O)c4cccc(Cl)c4)c3)nn2)CC1` the figure was 1.64%; with `Cc1cccc(Cl)c1S(=O)(=O)Nc1cccc(CCN2CCC(N3CCCCC3)CC2)c1`, 6.45%. `CCc1ccc(N2C(=O)C3C(Cc4ccc(OC(C)(C)C)cc4)NC4(C(=O)N(Cc5ccccc5)c5ccc(F)cc54)C3C2=O)cc1` (stereo not drawn) displayed an IFI of 1.44%. With `c1ccc2c(CNc3nc(NCC4CCCCC4)nc4[nH]cnc34)cccc2c1` the figure was 8.85%; with `O=C(Nc1ccc(C(F)(F)F)cc1)c1ccc(S(=O)(=O)NC2CCN(CC3CCCCC3)C2)cc1` (stereo not drawn), 5.95%; with `COc1ccc2c(N/N=C/c3cccc([N+](=O)[O-])c3)ccnc2c1`, 1.44%. `CCCN(CC1CC1)c1ncc(-c2ccccc2CNCc2ccccc2O)cn1`: the IFI turned out to be 4.88%.

`O=S(=O)(Nc1ccc(CCN2CCC(N3CCCCC3)CC2)cc1)c1cccc2cccnc12` displayed an IFI of 8.33%.

In turn, `CCNC[C@@H](O)[C@H](Cc1ccccc1)NC(=O)c1cc2c3c(c1)c(CC)cn3CCS(=O)(=O)N2C` gave an IFI of 1.49%. The value for `COc1ccc2[nH]ccc(=NN=Cc3ccccc3F)c2c1` was 5.22%; that for `Cc1ccc(S(=O)(=O)N2CCN(C(=O)c3cc(-c4ccccc4)n[nH]3)CC2)cc1` was 2.7%; that for `CCOc1cc(C)ccc1C1CCN(CCCCNC(=O)c2coc(-c3ccc(Cl)cc3)c2)CC1` was 7.89%. With `CCN(CCCN1CCCCC1)c1nccc(Nc2ccc(Cl)cc2)n1` the figure was -0%. Compound `CCn1ccc2c(N3CCCC3=O)cc(C(=O)N[C@@H](Cc3ccccc3)[C@H](O)CNC(C)(C)CCCC(C)C)cc21` gave an IFI of 4.96%. Regarding `Cc1ccc(Cc2cnc(CN3CCCCC3)c(O)c2)cc1`, the IFI amounted to 0.74%.

Compound `COc1cccc(CNC(=O)c2cc(CNCc3ccccc3)ccc2-c2cccc(CNCc3ccc(-c4ccccc4)cc3)c2)c1` registered an IFI of 9.6%. The value for `CO/C(=C\C=C\c1cc2cc(Cl)c(Cl)cc2[nH]1)C(=O)NCCCN1CCCC[C@H]1C` was 15%; that for `Cc1cccc2nc(-c3ccc(-c4ccc(CN5CCN(CCO)CC5)cc4)cc3)[nH]c12` was 5.88%; that for `CC(C)Nc1nc(NCCc2c[nH]cn2)nc(NCc2cccc3ccccc23)n1` was 0.75%. Consider `C=C[C@]1(C)C[C@@H](OC(=O)c2cncn(COC)c2=O)[C@]2(C)[C@H](C)CC[C@]3(CCC(=O)[C@H]32)[C@@H](C)[C@@H]1O`, for which the IFI turned out to be 1.52%.

On to `O=C(Nc1ccc(OC2CCN(Cc3ccc(F)cc3)C2)c(Cl)c1)c1ccc(F)cc1` (stereo not drawn), for which the IFI came out at 8.06%. On to `Cc1cc2ncc(C(N)=O)c(Nc3ccc(N4CCOCC4)cc3)c2cc1S(C)(=O)=O`, for which the IFI was determined as 3.55%. With `Cn1ccnc1CNC(=O)c1ccc(-c2cccc(-c3nc4cc(C(F)(F)F)ccc4[nH]3)c2)cc1` the figure was 2.75%; with `COc1ccc2nccc(NC(=O)OC3CCC(NCc4ccc5c(n4)NC(=O)CS5)CC3)c2c1` (stereo not drawn), -0%. The value for `COc1cc(C(=O)NC2CC(C)(C)N(C)C(C)(C)C2)ccc1-c1cc2cc(Cl)c(Cl)cc2[nH]1` was 13.6%.

These data come from ChEMBL document CHEMBL1157539, “Thousands of chemical starting points for antimalarial lead identification” (Nature, 2010).
